Activation data for 85 compounds are collected here from PubChem BioAssay AID1346428 (National Center for Advancing Translational Sciences (NCATS), 2018).

“And” between values parts separate entries of the source, which are not always exact repeats. Equal values may be shown once. The campaign covered roughly 48,000 compounds. About 1,200 (2.5%) were called active. About 2% were inconclusive and are not listed.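 The calls were made as follows: active = activation of at least 60% and not above a set upper limit (about 1 call in 100 departs from these limits); inconclusive = activation of 40% to 60%, or above that upper limit; inactive = activation under 40%.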 Some of the results follow.

Chain of UniProt O75388 (O75388 whole entry, looked up): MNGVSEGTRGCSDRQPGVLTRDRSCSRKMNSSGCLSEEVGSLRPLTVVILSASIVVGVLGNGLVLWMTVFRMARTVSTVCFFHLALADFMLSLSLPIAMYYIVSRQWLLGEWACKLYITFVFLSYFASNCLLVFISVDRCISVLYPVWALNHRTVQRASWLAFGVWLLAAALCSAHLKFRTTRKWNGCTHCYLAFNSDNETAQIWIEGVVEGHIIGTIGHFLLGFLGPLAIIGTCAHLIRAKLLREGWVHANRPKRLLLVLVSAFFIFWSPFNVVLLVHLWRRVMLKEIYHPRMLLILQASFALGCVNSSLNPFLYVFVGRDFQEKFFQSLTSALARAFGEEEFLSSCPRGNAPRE

The assay concerns the target Probable G-protein coupled receptor 32 (Homo sapiens) (UniProt O75388). Put plainly: qHTS for Agonists of Human Resolvin D1 Receptor DRV1. Also: 0% is about no effect. Particulars: CHO-K1 GPR32 beta-arrestin PathHunter luminescence, 90 min; at 76.9 µM; stronger effect = higher value; zero percent set by DMSO-only wells. In short, it runs like this:
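Step 1: seed CHO-K1 GPR32 beta-arrestin cells, 2,500/well, overnight at 37 °C. Step 2: add compounds, 90 min at 37 °C. Step 3: detection reagent, 1 h ambient, then luminescence.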
(qHTS replaces the single test concentration by a dilution series.)
For the compound `COc1cc(NC(=O)C2CCN(S(=O)(=O)c3c(C)noc3/C=C/c3ccccc3F)CC2)cc(OC)c1OC`, the activation was inactive: -19.8%. As to `COc1cc(OC)c(NC(=O)CCc2c(C)nc3c4c(C)cc(C)nc4nn3c2C)cc1Cl`, the activation was inactive: -14.1%. With `CCCCCN1C(C(=O)c2ccccc2)=C(OC(=O)CC)c2ccccc2S1(=O)=O`, the activation is inactive: -48%. As for `CC(NC(=O)c1ccc2c(c1)sc1nc(-c3ccc(F)cc3)cn12)C12CC3CC(CC(C3)C1)C2` (stereo not given), the activation was inactive: -10.5%. As to `FC(F)(F)c1cccc(Nc2c3c(nc4ccc(Cl)cc24)CCC3)c1`, the activation was inactive: 4.28%.

With `Cc1ccc(CCNC(=O)c2ccc(Nc3nc4ccccc4n4nnnc34)cc2)cc1`, the activation was inactive: 7.16%. Turning to `Cc1cccc(NC(=O)c2cc3c(=O)n(Cc4cccnc4)ccc3nc2C)c1`, the activation was inactive: -7.31%. Regarding `N#Cc1cc2c(=O)n3ccccc3nc2n(-c2nnc(SCc3ccccc3Cl)s2)c1=O`, the activation is inactive: -8.69%. The figure for `CCN(CCCNC(=O)Cn1ncc2c([nH]c3ccc(C)cc32)c1=O)c1ccccc1` is inactive: -6.26%. In the case of `CCC(Sc1nc2n[nH]c(C)c2c(=N)n1-c1ccccc1Cl)C(=O)N(CC)CC` (stereo not given), the activation is inactive: -18.3%.

On to `CC1Cn2c(C(=O)NCc3ccccc3Cl)cc3cccc(c32)S1` (stereo not given), for which the activation was inactive: -17.8%. For `COc1ccc(NC(=O)CCn2cnc3onc(-c4ccc(F)cc4)c3c2=O)cc1OC`, the activation is inactive: 35.2%. As to `O=C(NCC(c1cccs1)S(=O)(=O)c1cccs1)c1c(F)cccc1F` (stereo not given), the activation is inactive: -0.686%.

On to `CCCOc1ccc(C(=O)N(Cc2ccco2)Cc2ccco2)cc1`, for which the activation was inactive: -24.8%. Turning to `CC(C)c1nn2c(=O)cc(COC(=O)c3ccc(NC(=O)c4cccs4)cc3)nc2s1`, the activation was inactive: -11.4%.

Turning to `CCOC(=O)Cn1c(=O)n(CC2CCCO2)c2nc(-c3cc(OC)ccc3OC)nc(C(N)=O)c21` (stereo not given), the activation is inactive: -15.7%. In the case of `Cc1ccc(S(=O)(=O)NCCc2nnc3ccc(SCC(=O)Nc4ccc(F)cc4F)nn23)cc1`, the activation is inactive: -8.66%. Regarding `COc1ccc(CCNC(=O)CCc2c(C)nc3cc(-c4cccc(F)c4)nn3c2C)cc1OC`, the activation is inactive: -5.61%. As for `COc1ccnc(CS(=O)c2nc3ccc(OC(F)F)cc3[nH]2)c1OC` (stereo not given), the activation was inactive: 34.6%. For `Cc1ccccc1OCC(=O)Nc1ccccc1OCc1cc(=O)n2ccccc2n1`, the activation was inactive: -10.1%. Turning to `COc1ccc(OC(=O)c2nc(SCc3ccccc3C)ncc2Cl)cc1`, the activation was inactive: 31.8%. Turning to `Cc1cc(C)c2c(CC(=O)Nc3cc(C(F)(F)F)ccc3Cl)coc2c1`, the activation was inactive: -2.79%. Consider `Cc1ccc(CCNC(=O)CCCc2nnc3n(C)c(=O)c4sccc4n23)cc1`, for which the activation was inactive: 15.6%.

Consider `COc1cccc(CSc2nc3n(n2)C(CC(C)C)C(C(=O)Nc2ccccc2C)=C(C)N3)c1` (stereo not given), for which the activation is inactive: -5.47%.

`COc1ccc(C(=O)Nc2cccc(C(=O)OCc3cc(=O)n4c5c(sc4n3)CCCC5)c2)cc1`: the activation is inactive: -9.68%. The figure for `COc1ccccc1-n1c(=O)n(C)c2c(C(N)=O)nc(-c3cccc(OC)c3OC)nc21` is inactive: -21.9%; for `Cc1ccc(-n2ncc(C(=O)NCc3ccco3)c2C2CCN(C(=O)OC(C)(C)C)CC2)cc1` it is inactive: -18.3%. For the compound `CNC(=O)C1CCC(Cn2c(=O)c3sccc3n(CC(=O)N3CCC(C)CC3)c2=O)CC1` (stereo not given), the activation was inactive: -5.11%. With `CN(C(=O)c1c(O)c2ccccc2n(C)c1=O)c1ccccc1`, the activation is inactive: 23.2%.

With `Cc1cc(C)c(Cn2c(=O)n(CCCC(=O)NCc3ccc4c(c3)OCO4)c(=O)c3sccc32)c(C)c1`, the activation is inactive: -20.8%. Regarding `OCc1ccccn1`, the activation is inactive: -4.52%. With `COC(=O)c1cc(S(=O)(=O)NCC2CCN(Cc3cccc(F)c3)CC2)cn1C`, the activation is inactive: -11.7%.

As for `Cn1c(=O)c2c(-c3ccc(Cl)cc3)n(CCc3ccccc3)cc2n(C)c1=O`, the activation was inactive: -6.57%. In the case of `Cc1ccc2nc(Cl)c3cc(C(=O)N4CCCCC4)sc3c2c1`, the activation is inactive: -7.37%. With `COc1ccc(N2CCN(Cc3nc4c(c(=O)[nH]c(=O)n4C)n3Cc3ccccc3F)CC2)cc1`, the activation was inactive: -14.8%.

`COc1ccc(CCNC(=O)c2cc(=O)c3cc(C)c(C)cc3o2)cc1OC`: the activation is inactive: 24.8%.

Take `Cn1nnc2c(NCc3c(F)cccc3F)ncnc21`: the activation is inactive: 0.0021%.

With `COc1ccc(N(C(=O)Cn2nnc3ccccc32)C(C(=O)NCc2ccccc2)c2ccc(F)cc2)cc1` (stereo not given), the activation is inactive: -23.2%. Consider `Cn1c(=O)c2c(nc(SCC(=O)Nc3ccc(F)c(F)c3)n2Cc2ccccc2F)n(C)c1=O`, for which the activation was inactive: -0.387%. `CCc1ccc(C(=O)CC2(O)C(=O)N(CCc3ccccc3)c3ccc(Cl)cc32)cc1` (stereo not given): the activation was inactive: -14.4%. The value for `COc1ccc(CCNC(=O)C(=O)NCC(c2cccs2)S(=O)(=O)c2ccc(F)cc2)cc1` (stereo not given) was active: 85.1%; that for `O=C(NCCc1ccc(Cl)cc1)C1CCN(S(=O)(=O)c2ccc3[nH]ccc3c2)CC1` was inactive: 17.5%; that for `O=C(COCc1cc(-c2ccc3c(c2)OCO3)on1)Nc1cc(Cl)ccc1O` was inactive: 15.6%. The value for `COc1ccc(-c2noc(CNC(=O)COc3cccc(C)c3C)n2)cc1` was inactive: -12.4%.

With `CC(C)c1ccc(Nc2c(-c3ccccn3)nc3ccccn23)cc1`, the activation was inactive: -84.4%. Turning to `CCOC(=O)c1c(C)oc2nc(C)nc(NCCCN3CCN(c4cc(C)ccc4C)CC3)c12`, the activation was inactive: -2.82%.

On to `COc1ccc(-c2nc(CSCC(=O)NCc3ccccc3Cl)c(C)o2)cc1OC`, for which the activation is inactive: -23.7%.

Take `O=C(c1ccccc1)N1CCc2cc(CNS(=O)(=O)c3ccc(Cl)s3)ccc21`: the activation is inactive: 20.3%. As to `CCc1ccc(C(=O)C(C)CN2CCCCC2)cc1` (stereo not given), the activation is inactive: -4.78%. The figure for `O=C(CCSCc1cccc(Cl)c1)NCCc1ccc(Cl)cc1` is inactive: -11.5%.

Regarding `COc1ccc(-n2c(SCC(=O)NCc3ccc(F)cc3)nc3c([nH]c4ccccc43)c2=O)cc1`, the activation is inactive: -15.2%. Take `Cc1oc(-c2ccc(Cl)cc2)nc1Cn1c(=O)cc(C)c2c(C)nn(-c3ccccc3)c21`: the activation was inactive: -7.9%. Take `Cc1nn2cc(-c3ccc(OC(C)C)cc3)nc2s1`: the activation is inactive: -11.8%. `Cn1c(=O)n(C)c2cc(N3CCOCC3)c(NS(=O)(=O)c3cccc(C#N)c3)cc21`: the activation is inactive: -15.5%. With `COc1ccccc1CNC(=O)CCCCn1c(=O)c2ccccc2n(Cc2ccccc2F)c1=O`, the activation was inactive: 13.2%. The value for `CC(=O)Nc1cccc(NC(=O)Cn2cnc3c(oc4ccccc43)c2=O)c1` was inactive: -3.85%. For `CCOc1ccc(NC(=O)c2c(C)oc3nc(C)nc(N4CCOCC4)c23)cc1`, the activation was inactive: -14.3%. On to `Cc1ccc(CNC(=O)CSc2nc3ccccc3nc2Cc2ccc(C)cc2)cc1`, for which the activation was inactive: 21%.

As for `Cc1ccc(-c2nc3c4c(-c5ccccc5)c(-c5ccccc5)oc4ncn3n2)cc1`, the activation is inactive: 9%. Consider `Cc1ccc(CCNC(=O)C2CCN(S(=O)(=O)c3ccc4c(ccn4C)c3)CC2)cc1`, for which the activation was inactive: 5.49%. The figure for `Cc1cccc(-c2nc3c(cnn3-c3ccccc3)c(=O)n2-c2ccc(Cl)cc2)c1` is inactive: -8.74%; for `COc1ccc(S(=O)(=O)NCC(c2ccco2)S(=O)(=O)c2cccs2)cc1F` (stereo not given) it is inactive: -21.2%. The figure for `COc1ccc(NC(=O)CSc2nc(C)cc(C)c2C(=O)Nc2ccccc2OC)cc1` is inactive: -19.9%; for `O=C(C1CCCN(S(=O)(=O)c2cccc3nsnc23)C1)N1CCN(c2cccc(Cl)c2)CC1` (stereo not given) it is inactive: 48.6%; for `CCN(CC)c1nn2c(=O)c(C(=O)NCCc3cccc(C)c3)cnc2s1` it is inactive: -5.29%. In the case of `Cc1ccc2nc(-c3ccccn3)c(Nc3ccccc3C)n2c1`, the activation is inactive: -107%. `CCCN1CCc2nc(N3CCN(C)CC3)ncc2C1`: the activation was inactive: -0.0535%. Consider `COc1ccc(-c2noc(CSc3nc4ccccc4[nH]3)n2)cc1OC`, for which the activation is active: 67%. In the case of `CCc1cccc(C)c1NS(=O)(=O)c1ccc2c(c1)CC(C)N2C(=O)C1CC1` (stereo not given), the activation was inactive: 2.62%. Take `Cc1cccc(Cn2c(=O)n(-c3ccccc3C)c(=O)c3c2c2cc(C)ccc2n3C)c1`: the activation is inactive: 17.7%. The value for `Fc1cccc(CSc2ccc(-c3cccs3)nn2)c1` was inactive: -11.5%.

As to `COc1ccc(S(=O)(=O)NCCc2csc3nc(-c4ccccc4)nn23)cc1OC`, the activation was inactive: 1.2%. Take `Cc1ccc2oc3c(c(=O)c2c1)C(c1ccc(O)cc1)N(c1nc(C)c(C)s1)C3=O` (stereo not given): the activation was inactive: -3.84%. Take `[Cl][In]([Cl])[Cl]`: the activation is inactive: 33%.

For `CCC(=O)N1c2ccccc2CC1C(=O)NCc1cc(Br)ccc1OC` (stereo not given), the activation was inactive: 3.94%.

For `COc1ccccc1C(=O)N(c1ccc(C)cc1)S(=O)(=O)c1ccc(Cl)cc1`, the activation is inactive: -5.43%.

In the case of `Cc1csc2nc(COC(=O)c3ccc(NC(=O)C(C)Oc4ccccc4)cc3)cc(=O)n12` (stereo not given), the activation is inactive: -11.5%. The figure for `Cc1ccc(CNc2nc3ccccc3n3cnnc23)cc1` is inactive: -7.12%; for `CCC(=O)Nc1nnc(S(=O)(=O)N2c3ccccc3CC2C)s1` (stereo not given) it is inactive: -0.767%; for `CC(C)Cc1ccc(C(C)C(=O)O)cc1` (stereo not given) it is inactive: 23.6% and inactive: -2.15%. As for `CCCC1=Nc2cc(C(=O)N3CCC(C(=O)OCC)CC3)ccc2Sc2ccccc21`, the activation was inactive: 3.57%. In the case of `COc1ccc(NC(=O)c2cnc(N3CCCC3)nc2)cc1OC`, the activation was inactive: -1.38%. As for `COc1ccc(CN2CCN(C(c3ccc(F)cc3)c3ccc(F)cc3)CC2)c(OC)c1OC`, the activation is active: 78.3%. As for `O=C(NCc1cccc(F)c1)c1ccccc1NC(=O)c1nsc2ccccc12`, the activation was inactive: -13.4%. As for `Cc1cc(C)c2oc(-c3cccc(NC(=O)c4ccc(-c5cccc([N+](=O)[O-])c5)o4)c3)nc2c1`, the activation is inactive: 4.49%.
